Reference: PubChem BioAssay AID1460 (National Center for Advancing Translational Sciences (NCATS), 2008)
Out of some 270,000 compounds screened, about 5,800 (2.1%) were called active. The inconclusive results got no clear call from the source; some entries with a clear call stand among them for comparison. Calls come from the whole dose curve; as a rule, active = well fitted inhibition curve with a large enough effect; inconclusive = small, poorly fitted or top-dose-only effect; inactive = flat fitted curve, though single readings scatter. A potency beside an inconclusive call is a rough fit, not a confirmed value.

target: Microtubule-associated protein tau (Homo sapiens) (UniProt P10636); assay: qHTS for Inhibitors of Tau Fibril Formation, Thioflavin T Binding; conditions: recombinant tau K18 P301L (four-repeat tau fragment), heparin-induced fibrillization, ThT fluorescence; series mostly up to 57.4 µM; note: nearly all actives have a fitted effect of over 55% in size
Method in brief: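 In this qHTS, human K18 P301L tau is incubated with compound and heparin for 6 hr at 37 C, and Thioflavin T fluorescence then reports fibril load.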
Potency is the fitted concentration of half-maximal effect; tags give direction and shape of the fitted curve.

UniProt P10636, sequence (P10636 whole entry, looked up, the tested form may be a part): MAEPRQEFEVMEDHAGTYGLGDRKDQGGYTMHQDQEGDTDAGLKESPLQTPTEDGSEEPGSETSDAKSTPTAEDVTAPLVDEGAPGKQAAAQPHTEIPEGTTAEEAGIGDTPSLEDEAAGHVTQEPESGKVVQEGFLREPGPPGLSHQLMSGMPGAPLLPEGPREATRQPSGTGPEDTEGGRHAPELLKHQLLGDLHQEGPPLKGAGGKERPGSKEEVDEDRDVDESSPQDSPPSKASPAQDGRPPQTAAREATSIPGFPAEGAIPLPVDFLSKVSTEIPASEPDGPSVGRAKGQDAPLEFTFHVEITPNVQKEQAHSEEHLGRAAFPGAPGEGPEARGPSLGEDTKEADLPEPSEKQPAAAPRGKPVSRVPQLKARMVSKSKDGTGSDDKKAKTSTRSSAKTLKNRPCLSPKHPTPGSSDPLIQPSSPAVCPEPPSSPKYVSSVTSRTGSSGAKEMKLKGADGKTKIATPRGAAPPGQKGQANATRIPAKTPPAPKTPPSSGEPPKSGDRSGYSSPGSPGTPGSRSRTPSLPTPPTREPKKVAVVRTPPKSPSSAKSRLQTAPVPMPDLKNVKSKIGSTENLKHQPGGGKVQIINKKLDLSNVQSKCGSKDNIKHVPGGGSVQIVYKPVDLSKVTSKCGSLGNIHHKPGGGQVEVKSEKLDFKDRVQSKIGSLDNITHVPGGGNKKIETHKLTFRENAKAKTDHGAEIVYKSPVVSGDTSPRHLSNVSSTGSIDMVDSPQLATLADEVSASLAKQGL

SMILES	Potency
Cc1ccc(-n2c(C)cc(/C=N/NC(=O)c3ccncc3)c2C)cc1C	inconclusive: 39.8 µM [inhibitor, single point]
C=CCN=C1S/C(=C\c2ccc(N(C)C)cc2)C(=O)N1CC=C	inconclusive: 10 µM [inhibitor, partial curve]
O=C(CCSc1ccc(Cl)cc1)N1CCN(c2ccc(O)cc2)CC1	inconclusive: 5.01 µM [inhibitor, partial curve]
CC(C)c1ccc(C(=O)CSc2ncn[nH]2)cc1	inactive
CC(C)CC(=O)NC(=S)Nc1cccc2nsnc12	inconclusive: 31.6 µM [inhibitor, single point]
Cc1cccc(NC(=S)NCCc2ccccn2)c1	inactive
Clc1ccc(OCCSc2ncccn2)c(Br)c1	inconclusive: 31.6 µM [inhibitor, partial curve]
Nc1c(C(=O)Nc2ccc(Br)cc2)sc2nc(-c3ccco3)ccc12	active: 5.01 µM
O=C(CSc1nnc(SCc2ccc(Cl)cc2)s1)N1CCOCC1	inactive
COc1cccc(/C=N/NC(=O)CSCC(=O)Nc2ccccc2)c1O	inconclusive: 15.8 µM [inhibitor, partial curve, poor fit]
COc1ccc(CCNC(=O)CS(=O)Cc2nc(-c3ccc(C)cc3)oc2C)c(OC)c1 (stereo not drawn)	inconclusive: 28.2 µM [inhibitor, partial curve, poor fit]
Cc1cc(C(=O)Nc2nc3ccc(S(C)(=O)=O)cc3s2)c(C)o1	inactive
CNC(=O)c1cc(C)c(-c2ccccc2)s1	inconclusive: 28.2 µM [inhibitor, partial curve]
CCOc1ccc(NC(=O)CSc2nnc(-c3ccc(C)cc3)c(-c3ccc(C)cc3)n2)cc1	inconclusive: 11.2 µM [inhibitor, partial curve]
Cc1ccccc1CSc1nnc2[nH]c(=O)cc(C)n12	inactive
O=C(Cn1cc(S(=O)(=O)Cc2ccc(F)cc2)c2ccccc21)NCc1ccccc1Cl	inactive
COCC(=O)Nc1ccc(Nc2ccccc2)cc1	inconclusive: 14.1 µM [inhibitor, partial curve]
COc1ccc(C(=O)CCN2CCc3cc(OC)c(OC)cc3C2)cc1	inconclusive: 3.55 µM [inhibitor, full curve]
CCc1ccccc1NC(=O)C1CCCN(c2nnc(-n3c(C)ccc3C)s2)C1 (stereo not drawn)	inactive
CC(=O)c1ccc(NC(=O)c2cc(-c3ccc(Cl)c(Cl)c3)on2)cc1	inconclusive: 15.8 µM [inhibitor, partial curve]
CCN(CC)C(=O)c1cc(Cl)ccn1	inconclusive: 28.2 µM [inhibitor, single point]
O=C(NNC(=O)c1ccc(SCC2CCCO2)c([N+](=O)[O-])c1)c1ccc(Cl)c([N+](=O)[O-])c1 (stereo not drawn)	inconclusive: 11.2 µM [inhibitor, partial curve]
Cc1ccc(S(=O)(=O)Nc2cc(S(=O)(=O)N3CCCCC3)ccc2N2CCOCC2)cc1	inactive
O=c1c2ccccc2nc(-c2cccc(Cl)c2)n1O	inactive

SMILES	Potency
O=C1CSC(=S)N1/N=C/c1ccc(Cl)c([N+](=O)[O-])c1	inconclusive: 20 µM [inhibitor, partial curve]
CSc1nn(Cc2ccc(Br)cc2)c(N(C(C)=O)C(C)=O)c1S(=O)(=O)c1ccccc1	inconclusive: 25.1 µM [inhibitor, partial curve]
Nc1cc(N2CCCC2)c(Cl)cc1[N+](=O)[O-]	active: 15.8 µM
CCN1C(=O)/C(=C\N(C)C)NC1=S	inactive
COC(=O)c1ccc(N=Cc2c(-c3ccccc3)[nH][nH]c2=O)cc1	inactive
O=S(=O)(Nc1cccc(-c2ccc(N3CCCCC3)nn2)c1)c1ccc(Cl)s1	inactive
Fc1ccc(CNc2nc3ccc(Cl)cc3n3nnnc23)cc1	inactive
COc1ccc(C(=O)N/N=C/c2ccc(OC(=O)c3cccs3)cc2)cc1	inconclusive: 1 µM [inhibitor, full curve]
CCOCC(=O)Nc1nc2ccc(OCC)cc2s1	inactive
Cc1[nH]n(-c2ccccc2)c(=O)c1-c1ccc(Cl)cc1	inconclusive: 22.4 µM [inhibitor, single point]
Clc1ccccc1OCc1nc(-c2ccncc2)no1	inconclusive: 12.6 µM [inhibitor, partial curve]
C=CCn1c(SCc2csc(-c3ccc(Cl)cc3)n2)nnc1-c1ccccc1OC	inconclusive: 25.1 µM [inhibitor, partial curve, poor fit]
Cc1c(C(=O)N(C)c2cccc(C(F)(F)F)c2)sc2nc3n(c(=O)c12)CCCCC3	inconclusive: 25.1 µM [inhibitor, partial curve]
Cc1ccc2nc(SCCCCOc3ccccc3)[nH]c2c1	inconclusive: 31.6 µM [inhibitor, partial curve, poor fit]
Cc1cc2cc(CNC(=O)c3ccc(S(=O)(=O)N(C)C)cc3)ccc2n1C	inactive
COc1ccc(-c2nc3ccccc3c(=O)o2)cc1OC	inactive
O=C1CCC(C(=O)Nc2nnc(C3CC3)s2)=NN1	inconclusive: 14.1 µM [inhibitor, partial curve]
Nc1ccc2nn(-c3ccc(Cl)cc3)nc2c1	inconclusive: 12.6 µM [inhibitor, partial curve, poor fit]
COc1ccc(N2CC(C(=O)Nc3nnc(SCc4ccccn4)s3)CC2=O)cc1 (stereo not drawn)	inconclusive: 31.6 µM [inhibitor, single point]
Cc1ccc(C)c(/C=C/C(=O)c2ccccc(=O)c2O)c1	active: 22.4 µM
CCOC(=O)N1CCN(c2cccc(C)c2C)CC1	inconclusive: 22.4 µM [inhibitor, single point]
NNc1nc(-c2ccccc2)c2cc(Cl)ccc2n1	inconclusive: 22.4 µM [inhibitor, partial curve, poor fit]
O=c1c2c([nH]c3ccccc13)C(=C1CCCC1)CC2	inconclusive: 12.6 µM [inhibitor, partial curve]
O=C(Nc1ncc(Cc2cccc(C(F)(F)F)c2)s1)c1ccc(-c2cccc([N+](=O)[O-])c2)o1	inconclusive: 2.82 µM [inhibitor, partial curve, poor fit]
